# Experimental data as given in paper PMC4336329 (PLoS ONE, 2015).
# Among all 310,000 compounds or so, about 14,000 (4.5%) showed an effect of 50% or more. Effects have a minus sign here. The list shows a part of the results.
# Target: human ether-à-go-go-related gene (hERG) potassium channel (human, UniProt Q12809)
# Assay: primary screen, population patch clamp on CHO cells stably expressing hERG
# 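Note: peak tail current of the secondary pulse compared with the same well before compound.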
# Sequence of human ether-à-go-go-related gene (hERG) potassium channel (Q12809 whole entry, looked up): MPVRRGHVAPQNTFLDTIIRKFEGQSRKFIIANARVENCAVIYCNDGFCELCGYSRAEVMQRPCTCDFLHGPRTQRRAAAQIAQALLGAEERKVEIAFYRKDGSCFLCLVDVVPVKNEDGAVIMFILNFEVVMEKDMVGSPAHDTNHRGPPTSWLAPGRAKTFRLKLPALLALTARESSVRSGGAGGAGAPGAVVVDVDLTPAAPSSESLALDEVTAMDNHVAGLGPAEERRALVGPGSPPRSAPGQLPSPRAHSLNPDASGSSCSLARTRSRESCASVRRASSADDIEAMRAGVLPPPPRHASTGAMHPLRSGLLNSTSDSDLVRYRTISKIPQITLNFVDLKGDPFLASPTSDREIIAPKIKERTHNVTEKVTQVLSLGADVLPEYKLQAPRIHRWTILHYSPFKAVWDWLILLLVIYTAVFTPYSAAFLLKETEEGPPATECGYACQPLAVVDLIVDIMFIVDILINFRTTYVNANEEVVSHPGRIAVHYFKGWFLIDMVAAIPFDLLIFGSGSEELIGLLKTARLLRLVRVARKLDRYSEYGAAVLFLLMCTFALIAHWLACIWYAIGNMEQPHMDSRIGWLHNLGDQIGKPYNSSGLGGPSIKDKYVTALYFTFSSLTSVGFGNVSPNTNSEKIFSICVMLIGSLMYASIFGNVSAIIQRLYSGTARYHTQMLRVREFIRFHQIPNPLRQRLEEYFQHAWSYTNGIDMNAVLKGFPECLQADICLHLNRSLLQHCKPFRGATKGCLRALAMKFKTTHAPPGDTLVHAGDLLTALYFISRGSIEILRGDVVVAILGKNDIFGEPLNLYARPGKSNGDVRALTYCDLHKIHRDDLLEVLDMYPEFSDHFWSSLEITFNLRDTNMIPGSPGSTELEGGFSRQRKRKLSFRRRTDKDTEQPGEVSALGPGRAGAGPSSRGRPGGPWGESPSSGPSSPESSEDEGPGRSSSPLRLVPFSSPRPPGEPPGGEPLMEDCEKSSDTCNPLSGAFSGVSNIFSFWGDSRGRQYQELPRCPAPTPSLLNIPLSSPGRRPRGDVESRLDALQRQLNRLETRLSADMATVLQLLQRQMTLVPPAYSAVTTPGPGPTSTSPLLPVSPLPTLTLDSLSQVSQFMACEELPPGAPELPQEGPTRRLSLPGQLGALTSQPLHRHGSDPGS
row,Compound,"hERG current change (%, negative = inhibition) at 10uM"
1,Cl.O=C(NC12CC3CC(CC(C3)C1)C2)OCCNC1CCCCC1,17.9%
2,Cc1cccc(OCc2nnc(SCc3cc(=O)n4cc(Br)ccc4n3)o2)c1,-41.5%
3,COc1ccc(/C=C/C(=O)c2ccc[nH]2)cc1OC,-0.0299%
4,CCCCCCSc1nnc2[nH]c(=O)cc(N)n12,6.09%
5,Cc1cc(C)c2cc(CN(Cc3ccc4c(c3)OCO4)Cc3nnnn3Cc3ccco3)c(=O)[nH]c2c1,-6.62%
6,CN(CC1CCCO1)S(=O)(=O)c1ccc(C(=O)N2CCN(c3ccccc3)CC2)cc1 (stereo not shown),-8.9%
7,CCN(c1ccccc1)S(=O)(=O)c1cccc(C(=O)NCC2(N(C)C)CCCCC2)c1,-60.5%
8,O=C(CSc1nc2nc(-c3cccs3)cc(C(F)(F)F)c2c(=O)[nH]1)Nc1ccc(F)c(F)c1,-19.8%
9,COc1cccc(C(C(=O)NC2CCCC2)N(CC2CCCO2)C(=O)Cc2cccs2)c1 (stereo not shown),10.7%
10,Cc1cc2oc(=O)c(CC(=O)O)c(C)c2c2occ(C(C)(C)C)c12,13.4%
11,Cc1ccc(C(NC(=O)N2CCOCC2)=C(Cl)Cl)cc1F,-14%
12,NS(=O)(=O)c1ccc(CCNc2nc(CN3CCCCC3)nc3sc4c(c23)CCC4)cc1,-72.9%
13,CN(C)c1ccc(-c2ccc3c(=O)c4ccccc4n(C)c3c2)cn1,-8.37%
14,Cc1c2cnn(-c3ccccc3)c(=O)c2c(C)n1CCCC(=O)N1CCN(C)CC1,-18.1%
15,CCC1(c2ccc(F)cc2)NC(=O)N(CC(=O)N2CCOCC2)C1=O (stereo not shown),2.31%
16,CCN(CC)CCNC(=O)CS(=O)Cc1nc(-c2ccccc2Cl)oc1C (stereo not shown),-11%
17,O=C(NCC1CCCN(C2Cc3ccccc3C2)C1)c1cccs1 (stereo not shown),-40.7%
18,O=C(c1cccc(S(=O)(=O)N2CCN(c3ccccc3)CC2)c1)N1CCN(c2ccccc2O)CC1,-8.86%
19,O=C(Nc1cccc([N+](=O)[O-])c1)Nc1cccc([N+](=O)[O-])c1,13.1%
20,CCc1ccc(NC(=O)NNC(=O)c2ccc3ccccc3c2O)cc1,15.9%
21,O=C(Nc1cc(Cl)ccc1N1CCOCC1)C1=COCCO1,-5.55%
22,COc1ccc(-n2c(=O)c(CCC(=O)N(C)Cc3cccs3)nc3ccccc32)cc1,-38.7%

row,Compound,"hERG current change (%, negative = inhibition) at 10uM"
1,COc1cc(NC(=O)c2cc(-n3cnnc3)ccc2Cl)cc(OC)c1,-3.44%
2,CCc1ccc(NC(=O)CSc2nc(=O)n(CCCN3CCOCC3)c3c2CCCC3)cc1,-54.7%
3,O=C(CCCSc1nnc(SCCCC(=O)c2ccc(F)cc2)s1)c1ccc(F)cc1,17.8%
4,O=C(NCc1ccccc1)C1=C[C@H](c2csc3ccccc23)C[C@H](OCCCCO)O1,-12.5%
5,CC1(C)OC(=O)N(Cc2ccco2)C1(C)O (stereo not shown),14.4%
6,Cc1cccc(C(=O)OCC(=O)N2CCCCCC2)c1,7.77%
7,COCCNC(=O)c1ccc2c(c1)S(=O)(=O)c1ccccc1C2=O,0.495%
8,N#C/C(=C\c1c(Cl)cccc1Cl)c1nc2ccccc2[nH]1,9.08%
9,O=S(=O)(c1cccc(-c2csc(-c3ccccc3)n2)c1)N1CCOCC1,-33.6%
10,O=C(NC1(c2ccccc2)CC1)C1CCC(=O)N(Cc2ccc(Cl)cc2)C1 (stereo not shown),-24.1%
11,O=C(Nc1ccccc1Cc1ccccc1)c1ccccc1F,-4.48%
12,CCCc1c(O)nc(SCC(=O)O)[nH]c1=O,67.7%
13,O=C1CCCCC1S(=O)(=O)c1ccccc1 (stereo not shown),-6.31%
14,CCOC(=O)c1nn(-c2ccc(OC)cc2)c(=O)c2c(N)scc12,0.386%
15,Cc1ccc2nc(=O)c(NNc3ccccc3)cnc2c1,15.6%
16,Cc1ccccc1CN(C)C(=O)c1ccc2ccccc2n1,0.112%
17,Cc1ccc(S(=O)(=O)N2CCN(S(=O)(=O)N3CCCCC3)CC2)c(C)c1,-6.97%
18,Cc1cc(NC(=O)CSCC(=O)Nc2cc(Cl)ccc2N2CCN(C)CC2)no1,-25.7%
19,CCOC(=O)N1CCN(C(=O)CSCc2ccccc2)CC1,16.6%
20,COc1ccc(/C=C/C(=O)NCCCN2CCCCCC2)cc1,-58.3%
21,N#C/C(=C\c1ccc(N2CCCCC2)c([N+](=O)[O-])c1)c1nn(-c2ccccc2)c(N)c1C#N,12.1%
